Laboratory results reported in PubChem BioAssay (NCATS).
The inconclusive results got no clear call from the source; some entries with a clear call stand among them for comparison. No potency is given beside an inconclusive call; the fits are too rough. Active and inactive are the calls of the source. The call rests on the fitted dose curve; in most records, active means well fitted inhibition curve with a large enough effect; inconclusive means small, poorly fitted or top-dose-only effect; inactive means flat fitted curve, though single readings scatter. Residues, ends and D or L forms follow the SMILES beside them. *: point of attachment. βNA = c1ccc2cc(N*)ccc2c1; Cbz = O=C(OCc1ccccc1)*

Target: Aldehyde dehydrogenase, mitochondrial (Homo sapiens) (UniProt P05091)
Assay: qHTS for Inhibitors of the Aldehyde Dehydrogenase Family (ALDH2) Primary screen (AID 2061308); further: nearly all actives have a fitted effect of over 55% in size;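 on activity change, negative = inhibition: plate controls were vehicle for no effect and reference inhibitor for full effect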
Settings: ALDH2 enzyme inhibition qHTS, 1536-well; series mostly up to 56 µM; activity change, negative = inhibition: at the top concentration
Potency means the concentration at half of the fitted maximal effect; tags describe the fitted curve by direction and shape.

**Q.** For `O=C(Cc1nnc(-c2ccncc2)s1)Nc1ccc(F)c(C(F)(F)F)c1`, which Potency is on record?
**A.** Its Potency is inconclusive [inhibitor, partial curve, poor fit].

**Q.** Which “activity change, negative = inhibition” value does the source give for `Cc1ccc(NS(=O)(=O)c2ccc(F)cc2)cc1C` here?
**A.** Its value is inactive: -5.35%.

**Q.** Which Potency does the source give for `Oc1ccc(CNc2ccccn2)c2cccnc12` here?
**A.** The Potency was inconclusive [inhibitor, single point].

**Q.** Which “activity change, negative = inhibition” value does the source give for `O=C(NCCc1nc2ccccc2n1CCOc1ccc(Cl)cc1)C1CCCCC1` here?
**A.** Its value is inactive: 8.57%.

**Q.** How did the Potency turn out when `N#Cc1c(-c2ccccc2C(F)(F)F)nc2ccccc2c1NCc1ccc(-c2ccnc(C(F)(F)F)c2)cc1` was run?
**A.** The Potency was inconclusive [inhibitor, partial curve, poor fit].

**Q.** For `Cn1c2cc(C(=O)O)sc2c2cnn(Cc3ccccc3F)c(=O)c21`, which “activity change, negative = inhibition” value is on record?
**A.** The value was inactive: -2.9%.

**Q.** With `CC(C)CC(NC(=O)OCc1ccccc1)C(=O)NC(CC(C)C)C(=O)NC(CCC(=O)O)C(=O)Nc1ccc2ccccc2c1` (stereo not drawn) (Cbz-Leu-Leu-Glu-βNA; configuration not given here) as the compound, how does the “activity change, negative = inhibition” value read?
**A.** The value was inactive: -1.85%.

**Q.** With `N#Cc1c(-c2ccc(-c3ccccc3)cc2)no[n+]1[O-]` as the compound, how does the Potency read?
**A.** The Potency was inconclusive [inhibitor, full curve, poor fit].

**Q.** `C=C(C(=O)O)[C@H]1C[C@]2(C)[C@@H](O)CC[C@]23O[C@H]1C[C@@H]3C` was tested. Which “activity change, negative = inhibition” value did it give?
**A.** Its value is inactive: -1.76%.

**Q.** Which Potency does the source give for `CC(C)(C)OC(=O)N1CCN(c2ccc(OCc3ccc(-c4ccc(C#N)cc4)o3)cc2)CC1` here?
**A.** The Potency was inconclusive [inhibitor, full curve, poor fit].

**Q.** With `COc1ccc(C2Cc3ccccc3C(=O)N2Cc2ccccc2)cc1COc1ccc(NC(C)=O)cc1` (stereo not given) as the compound, how does the Potency read?
**A.** Its Potency is inconclusive [inhibitor, full curve, poor fit].

**Q.** With `Cc1ccc(C(=O)NCC(=O)OC(C(=O)Nc2cc(C(F)(F)F)ccc2Cl)c2ccccc2)cc1` (stereo not given) as the compound, how does the “activity change, negative = inhibition” value read?
**A.** The value was inactive: -7.98%.

**Q.** `Cc1cc(C)n2ncc(C(=O)NCc3ccccc3)c2n1` was tested. Which “activity change, negative = inhibition” value did it give?
**A.** The value was inactive: 0.0789%.

**Q.** How did the “activity change, negative = inhibition” value turn out when `C=C(COC(=O)C(C)C)C1Oc2cc(C(C)=O)ccc2C1OC(=O)C(C)C` (stereo not given) was run?
**A.** Its value is inactive: -11.3%.

**Q.** With `COc1ccc(C2c3c(N)nc(Cc4ccccc4)nc3Oc3ccc4ccccc4c32)cc1OC` (stereo not given) as the compound, how does the Potency read?
**A.** Its Potency is inconclusive [inhibitor, partial curve, poor fit].

**Q.** For `O=c1c2ccccc2nc2sc(Nc3ccc(Oc4ccccc4)cc3)nn12`, which Potency is on record?
**A.** Its Potency is inconclusive [inhibitor, partial curve].

**Q.** For `Cc1ccc(CNc2ncnc3ccc(-c4ccc5c(c4)OCO5)cc23)s1`, which Potency is on record?
**A.** The Potency was inconclusive [inhibitor, partial curve, poor fit].

**Q.** `CC(O)c1ccc(-c2ccc3ncnc(NCC4CCCO4)c3c2)o1` (stereo not given) was tested. Which Potency did it give?
**A.** The Potency was inconclusive [inhibitor, partial curve, poor fit].

**Q.** `O=C(O)c1ccc(S(=O)(=O)N[C@@H](Cc2ccc(O)cc2)C(=O)O)cc1` was tested. Which Potency did it give?
**A.** Its Potency is inconclusive [inhibitor, partial curve, poor fit].

**Q.** Which “activity change, negative = inhibition” value does the source give for `NC(=O)c1ccc(O)c2ncccc12` here?
**A.** The value was inactive: -7.57%.

**Q.** For `C[C@@H]1CN(S(=O)(=O)c2ccc3c(c2)OCCO3)CCN1S(=O)(=O)c1c(F)cccc1F`, which “activity change, negative = inhibition” value is on record?
**A.** Its value is inactive: 2.59%.

**Q.** For `CC1CC(=O)C2C(O)(C1)CC(O)C13OC1c1c(O)cccc1C(=O)C23O` (stereo not given), which “activity change, negative = inhibition” value is on record?
**A.** Its value is inactive: -9.84%.

**Q.** How did the Potency turn out when `Cc1c(C(N)=O)[nH]c2c1C(=O)CC(c1ccco1)C2` (stereo not given) was run?
**A.** Its Potency is inconclusive [inhibitor, partial curve, poor fit].

**Q.** How did the Potency turn out when `C=C1C(O)C(O)C2(CC3C(C)=CCC4C(C)(C(=O)O)CCCC34C)OC2C1O` (stereo not given) was run?
**A.** Its Potency is inconclusive [inhibitor, partial curve, poor fit].

**Q.** How did the Potency turn out when `O=C(OCC#CCNc1nnc(-c2cccc3ccccc23)o1)c1cccs1` was run?
**A.** Its Potency is inconclusive [inhibitor, single point].

**Q.** For `O=c1c(Nc2ccc(Br)c(Br)c2)c(Nc2nnc(-c3ccncc3)s2)c1=O`, which Potency is on record?
**A.** Its Potency is inconclusive [inhibitor, full curve, poor fit].

**Q.** `Cn1c2ccsc2c2cnn(Cc3ccccc3F)c(=O)c21` was tested. Which “activity change, negative = inhibition” value did it give?
**A.** The value was inactive: 14.8%.

**Q.** Which “activity change, negative = inhibition” value does the source give for `OC(CC1c2ccccc2-c2cncn21)C1CCCCC1` (stereo not given) here?
**A.** The value was inactive: 6.09%.

**Q.** With `COc1ccc(C2c3c(nc(CCc4ccccc4)[nH]c3=O)Oc3ccc4ccccc4c32)cc1OC` (stereo not given) as the compound, how does the Potency read?
**A.** Its Potency is inconclusive [inhibitor, full curve].

**Q.** With `COc1cc(F)c(S(=O)(=O)N2CCN(S(=O)(=O)c3cccs3)CC2)c(F)c1` as the compound, how does the Potency read?
**A.** Its Potency is inconclusive [inhibitor, single point].
